In the supplement of paper PMC10126150:
Values marked as one replicate rest on one cluster of the flow cell; about a third of the high ones do not repeat.

System: ATP
Assay: switch fluorescence ratio, 500 uM ATP over buffer (Cy3 cluster intensity, sum of 5 cycles each) (fold (ratio)); higher = stronger signal-on switching upon ATP binding; sequences stand for … in TCGTCGGCAGCGTCAGATGTGTATAAGAGACAGTTTTTTTTTTTTTTTTTTTTTTTTT…TC
Conditions: aptamer strand: ATP DNA aptamer (quencher-CACCTGGGGGAGTATTGCGGAGGAAGG + anchor), 100 nM annealed; ATP concentration: 500 uM; one replicate
Procedure, shortened: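 Imaging in selection buffer was followed by imaging after 15 min with 500 uM ATP at 22 °C, for Cy3-labelled switching-strand clusters annealed to 100 nM quencher-labelled ATP aptamer on a modified Illumina MiSeq flow-cell. Five of these buffer/ATP cycles ran, separated by NaOH stripping and re-annealing. The fluorescence ratio per cluster is summed target-cycle over summed buffer-cycle Cy3 intensity, averaged per switch-domain sequence; clusters outside 100-1000 RFU were removed.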
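Also: ATP exposure 15 min at 22 °C before imaging.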

Sequence | switch fluorescence ratio
CGCACCACG | 1.11
CAAATCAGTA | 0.936
CACGTGTAGA | 1.04
ACCGATATGA | 1.01
CTGGAAGTGG | 1.01
TTTGAACCAC | 1.04
AATACCACG | 1.13
CTGCAGCCTG | 1.09
CTATTCATTA | 1.56
GATTCCCGCT | 1.14
AATAGGCAC | 0.981
AACACTAGGA | 1.05
GAACTACTCT | 0.974
ATCGAGGAGC | 1
GCAATTCACG | 1.27
TGTCTTAAAT | 1.01
CGTTGAATGG | 0.968
CCGTGAAACC | 0.988
TATATGGCTG | 0.953
TGCTGAATAT | 0.996
TGAGATCAAA | 1.03
TCCGCTTATT | 2.27
ATTGATACAG | 0.988
AGCTGATGTC | 1.03
TGGTTTTAGT | 1
CTTCGGTTGC | 1.34

Sequence | switch fluorescence ratio
GAGTGAGAA | 0.97
GATATGTCGC | 1.01
GTCTCCTCAC | 1.2
GCTGGGCTG | 0.999
AGTTAGGCTT | 0.987
GCCGGCAGTG | 0.937
TCGAGTTCTA | 0.953
CTAAGGCACA | 1.11
CTATGATTAT | 1.01
TTATTTAGCC | 0.91
TGACGGTTCG | 1.1
CCACGGGTTC | 1.1
GGATCCACGT | 1.05
GCCTCACGAC | 1.44
TACAATAATC | 1.04
CAAGCTCAGG | 1.03
TTTTATGCA | 0.998
GAAACGGTAT | 1.07
ATTAGGGGT | 1.05
AGGAGACATT | 1.04
GACTGTGTAC | 1.21
ATGAGCAGC | 0.999
CTTGCGTGGG | 0.975
TTTCCGAGAA | 1.04
TTAAGACGGA | 1.03
CATTGTTGGA | 0.982

Sequence | switch fluorescence ratio
TTTTAGCCGT | 1.07
CTCTATTGCG | 1.01
ACTTCTTTAT | 0.994
AAGTCCCCCG | 1.11
GTGATAGGTC | 1.06
ACAGTTGCCA | 0.963
AAGGGCGTCC | 0.96
TTAAGGCTCA | 1
GTAGGATTCG | 1.03
CTCAGGCCAT | 1.09
CTGATGGGAT | 1.26
ATCGTCCGAA | 1.07
ACTCTACGTG | 1.26
ATGTTGGTC | 0.991
AAGGAAAAT | 1.04
TTTCCGCGGT | 1.37
CAGAACTTGA | 0.875
TAACTGTGTT | 0.981
CTAAGTGCCT | 1.05
TCCGGACACG | 1.03
TAGGTTGGCA | 1
GAACTTCGTT | 0.997
GAACTCGGCC | 1.1
CTCGCTGATA | 1.22
CACGGGACAT | 1.2
GGGTGATCCG | 1.02

Sequence | switch fluorescence ratio
AATGCTACCG | 1.01
TGCATTGAGT | 1.01
GGGATCGGTA | 0.975
CTTAATTGTA | 1.02
AGCGCAAGGA | 2.28
TGCTCAGAGA | 1.04
ACAAGCAAGT | 1.15
ATCGGCTTGG | 0.95
GTTCATGACA | 0.986
TTTCGACAAC | 1.13
TCAGAACTCT | 1.04
GCGCGAGTGA | 1.02
CGTCGTATTA | 0.959
CTCGCCACG | 1.04
AAAGATATGC | 1.08
TCATGACGAA | 1.03
AAGACTAACT | 1.1
CACGGTGATG | 0.954
TCGGTTCACT | 0.975
TGCTTAGTCA | 1.01
ATTTCCACCA | 0.986
ACTGAATAGG | 0.972
TGGTTGCTCG | 0.986
AATGTGGATC | 1.03
AAAAGAGCAG | 1.02
TCGAGGGTTG | 0.983

Sequence | switch fluorescence ratio
TCTGAAATTG | 0.971
GGGTTATATG | 0.967
TCGAACATCG | 0.965
ATTTCTGCTG | 0.916
CCATACCCAT | 1.05
AATTGAATCT | 0.989
AAGTTGGAG | 1
CGGAATGTAC | 1.89
TATCTGGATC | 0.98
GTTCTTTGGT | 0.965
GGCGGATTTT | 0.97
GAAAAACAAT | 1.23
TAGGCCTCGC | 0.982
CATATTGTA | 0.996
GGACAGGGTA | 0.974
TTCAGCTTAC | 5.15
GCGTGGCTCG | 0.981
GGCTGGAGCC | 1.01
GGTCACGTAG | 0.968
CGGAGTATA | 1.42
ATTATAGTTA | 0.984
CAAAAGAAGG | 0.974
TAAGTCTACG | 0.935
ATGCTCACTG | 1.04
TTCAGGTACG | 1.01
AATACACAGC | 1.23

Sequence | switch fluorescence ratio
CGTTTATACA | 1.04
TTTGCGGGCC | 0.96
ACTTTCTCGA | 0.983
CCTCGAAGTT | 1.07
GGTCAACAGT | 1.03
CCTTCGATA | 3.36
GAGGTGTAG | 0.965
GCGCAACCGG | 0.985
CTGGGTCAAA | 1.04
GGGCACAAGA | 0.999
CAATAGGATC | 1.06
ATAAAAAATT | 1.01
CCCGTGCGAT | 1.01
TTAAGATGGA | 0.976
GGTGGCAAGT | 1.02
CCATGACACC | 1.06
TGCCATGGCT | 1.11
GAATATATGA | 1.03
GCAATGACAC | 2.49
GGATTGGCAT | 0.968
TACAGGGCAG | 1.03
CAGCGCCCGT | 0.963
CATTATGGCA | 0.98
